In PubChem BioAssay AID1745853 (National Center for Advancing Translational Sciences (NCATS), 2022) one finds activity change, negative = inhibition data, which are given here for 30 molecules.

The list shows a part of the results. The main result of the screen is listed elsewhere. These columns were measured beside it and carry no call.

What all share (test): Primary Screen for Target Class Profiling of Small Molecule Inhibitors of Methyltransferases
Assay [1] has as its target Glycine N-methyltransferase (Homo sapiens) (UniProt Q14749). The conditions noted are these: purified enzyme, MTase-Glo SAH luminescence; measured here: GNMT inhibition; at 40 µM; stronger effect = lower value. In short, it runs like this: (§1)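 Each enzyme was reacted with SAM and its substrate, with compounds tested once at 40 uM; SAH formed was read by MTase-Glo luminescence.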

In assay [2] the target is Guanidinoacetate N-methyltransferase (Homo sapiens) (UniProt Q14353). The conditions noted are these: purified enzyme, MTase-Glo SAH luminescence; measured here: GAMT inhibition; at 40 µM; stronger effect = lower value. In short, it runs like this: as §1
The target of assay [3] is Histamine N-methyltransferase (Homo sapiens) (UniProt P50135). The conditions noted are these: purified enzyme, MTase-Glo SAH luminescence; measured here: HNMT inhibition; at 40 µM; stronger effect = lower value. In short, it runs like this: as §1
For assay [4], the target named is Nicotinamide N-methyltransferase (Homo sapiens) (UniProt P40261). The conditions noted are these: purified enzyme, MTase-Glo SAH luminescence; measured here: NNMT inhibition; at 40 µM; stronger effect = lower value. In short, it runs like this:
as §1

Assay [5] deals with Phenylethanolamine N-methyltransferase (Homo sapiens) (UniProt P11086). The conditions noted are these: purified enzyme, MTase-Glo SAH luminescence; measured here: PNMT inhibition; at 40 µM; stronger effect = lower value. Put shortly:
as §1
% is scaled to controls: 0 for no effect and ±100 for the full control effect.

In the case of `CCn1c(C2CCCNC2)nn(Cc2csc(-c3ccccc3)n2)c1=O` (configuration not stated), the activity change, negative = inhibition is -3.28% in assay [1]; -8.51% in assay [2]; -5.69% in assay [3]; -12.1% in assay [4]; -8.4% in assay [5].

For `COCCCNc1nc2c(S(=O)(=O)c3ccc(C)c(C)c3)nnn2c2ccccc12`, the activity change, negative = inhibition is -12.7% in assay [1]; 4.5% in assay [2]; 1.3% in assay [3]; 1.89% in assay [4]; -4.97% in assay [5].

For the molecule `CCCCNc1nc2c(-c3ccc(F)cc3)nnn2c2ccccc12`, the activity change, negative = inhibition was determined as 2.58% in assay [1]; 0.305% in assay [2]; 7.78% in assay [3]; 12.6% in assay [4]; 2.74% in assay [5].

Regarding `Cn1c(=O)n(C)c2cc(S(=O)(=O)N(Cc3ccco3)C(=O)c3ccncc3)ccc21`, the activity change, negative = inhibition in assay [1] was 3.73%; in assay [2], 0.031%; in assay [3], 7.55%; in assay [4], 8.44%; in assay [5], 3.06%.

In the case of `COC(=O)c1ncn2c1C(=O)N(CCCc1ccccc1)C(C)(C(=O)NC1CCCCC1)C2` (configuration not stated), the activity change, negative = inhibition in assay [1] is 1.02%; in assay [2] it was 7.92%; in assay [3], -1.61%; in assay [4], 3.97%; in assay [5], 2.38%.

In the case of `CC(C)CCNC(=O)C1c2c(n(C)c3ccccc23)SCC(=O)N1Cc1ccccc1Cl` (configuration not stated), the activity change, negative = inhibition was 4% in assay [1]; -2.36% in assay [2]; 0.61% in assay [3]; -10.8% in assay [4]; -2.04% in assay [5].

Regarding `COc1ccc(N2C(=O)c3cc(C(C)(C)C)nn3CC2(C)C(=O)NCc2ccccc2)cc1` (configuration not stated), the activity change, negative = inhibition in assay [1] was 5.09%; in assay [2], 0.471%; in assay [3], 5.77%; in assay [4], 1.32%; in assay [5] it was 1.46%.

Take `CCCn1c(=O)c2ccc(C(=O)NC3CCCCC3)cc2n2c(=O)n(Cc3cccc(F)c3)nc12`: the activity change, negative = inhibition in assay [1] was 5.34%; in assay [2], 0%; in assay [3], 10.3%; in assay [4], 7.87%; in assay [5] it was 7.13%.

For `Cc1c(Cl)cccc1N1C(=O)c2cc(C(C)(C)C)nn2CC1(C)C(=O)NC1CCCCC1` (configuration not stated), the activity change, negative = inhibition in assay [1] is -10.2%; in assay [2], -0.516%; in assay [3], -8.33%; in assay [4], -3.85%; in assay [5], -5.04%.

Turning to `CCOCCCNC(=O)C1c2c(n(C)c3ccccc23)SCC(=O)N1Cc1ccc(C)cc1` (configuration not stated), the activity change, negative = inhibition in assay [1] amounted to 10%; in assay [2] it was 1.39%; in assay [3], 7.67%; in assay [4], 1.91%; in assay [5], 9.35%.

As for `O=C1CCC(=O)N(O)CCCCCNC(=O)CCC(=O)N(O)CCOCCNC(=O)CCC(=O)N(O)CCCCCN1`, the activity change, negative = inhibition is 8.03% in assay [1]; 4.39% in assay [2]; -0.106% in assay [3]; -7.38% in assay [4]; 5.45% in assay [5].

Consider `COC(=O)c1cc2n(n1)CC(C)(C(=O)NC1CCCCC1)N(c1cccc(F)c1)C2=O` (configuration not stated), for which the activity change, negative = inhibition worked out at 5.38% in assay [1]; 0% in assay [2]; 9.54% in assay [3]; 6.46% in assay [4]; 5.96% in assay [5].

As for `CCOc1ccccc1CN1C(=O)c2cc(-c3ccccc3)nn2CC1(C)C(=O)NCc1ccccc1` (configuration not stated), the activity change, negative = inhibition is 5.25% in assay [1]; 0% in assay [2]; 1.16% in assay [3]; 1.29% in assay [4]; -2.31% in assay [5].

As to `C=C(C)n1c(=O)n(Cc2ccc(C)cc2)c2ccccc21`, the activity change, negative = inhibition in assay [1] is -0.159%; in assay [2], 0.334%; in assay [3], 6.32%; in assay [4], -8.49%; in assay [5], 2.25%.

For the molecule `COc1ccc(NC(=O)CSc2nnc3n(Cc4ccccc4)c(=O)c4ccccc4n23)cc1`, the activity change, negative = inhibition was -5.28% in assay [1]; 1.69% in assay [2]; 4.24% in assay [3]; -6.42% in assay [4]; -2.23% in assay [5].

In the case of `O=C(Cn1nc2n(CCc3ccccc3)c(=O)c3ccccc3n2c1=O)Nc1ccc(Cl)cc1`, the activity change, negative = inhibition in assay [1] was determined as 1.79%; in assay [2], 0.105%; in assay [3], 3.13%; in assay [4], 3.55%; in assay [5] it was 1.63%.

Turning to `Cc1noc(C)c1CCNC(=O)c1ncn2c1C(=O)N(C1CC1)C(C)(C(=O)NCc1ccccc1Cl)C2` (configuration not stated), the activity change, negative = inhibition in assay [1] came out at 1.28%; in assay [2], 2.5%; in assay [3], 14.7%; in assay [4], 2.68%; in assay [5] it was 10.5%.

For `COCC(=O)N[C@H]1C[C@@H](CO)N(Cc2sccc2C)C1`, the activity change, negative = inhibition was -2.72% in assay [1]; -0.017% in assay [2]; 0.812% in assay [3]; 0.292% in assay [4]; -20.6% in assay [5].

On to `Cc1cccc(NC(=O)Cn2c(=O)oc3cc(S(=O)(=O)N4CC(C)CC(C)C4)ccc32)c1C` (configuration not stated), for which the activity change, negative = inhibition in assay [1] is -7.92%; in assay [2], 2%; in assay [3], -3%; in assay [4] it was -0.681%; in assay [5], -6.78%.

As for `CC(C)n1c(=O)c2ccc(C(=O)NC3CCCCC3)cc2n2c(=O)n(CC(=O)NC3CCCC3)nc12`, the activity change, negative = inhibition in assay [1] is 6.01%; in assay [2] it was 0%; in assay [3] it was 9.35%; in assay [4], 6.82%; in assay [5] it was 6.7%.

For `C=C1CC[C@@H]2[C@](C)(CO[C@@H]3O[C@H](CO)[C@@H](O)[C@H](O)[C@H]3O)CCC[C@@]2(C)[C@@H]1CCC1=CCOC1=O`, the activity change, negative = inhibition in assay [1] was 0%; in assay [2], 2.35%; in assay [3], 6.73%; in assay [4], -12%; in assay [5] it was 3.88%.

For the molecule `COC(=O)C1=C2Nc3ccccc3C23CCN2CCCC(C(C)O)(C1)C23` (configuration not stated), the activity change, negative = inhibition in assay [1] is -2.79%; in assay [2], -1.68%; in assay [3], -63.3%; in assay [4], -12.2%; in assay [5], -11.1%.

As for `COc1ccc(-c2nnc3n(CCc4ccccc4)c(=O)c4ccccc4n23)cc1`, the activity change, negative = inhibition in assay [1] is -6%; in assay [2], 0%; in assay [3], -0.031%; in assay [4] it was -3.36%; in assay [5] it was -7.23%.

In the case of `COc1c/c(=C2\C=c3ccccc3=N2)[nH]/c1=C\c1[nH]c(C)cc1C`, the activity change, negative = inhibition in assay [1] is -31.8%; in assay [3], -30%.

Turning to `CCc1cc2c(cc3n2CC(C)(C(=O)NC2CCC(C)CC2)N(c2cccc(C)c2C)C3=O)s1` (configuration not stated), the activity change, negative = inhibition in assay [1] worked out at 5.53%; in assay [2] it was 1.16%; in assay [3] it was 6.37%; in assay [4], 13.7%; in assay [5] it was 4.79%.

As for `CCOC(=O)c1cc2n(n1)CC(C)(C(=O)NC1CCCCC1)N(Cc1ccccc1F)C2=O` (configuration not stated), the activity change, negative = inhibition in assay [1] is 4.57%; in assay [2] it was 4.48%; in assay [3], -1.95%; in assay [4] it was 2.21%; in assay [5], 3.89%.

Consider `O=C(CCn1ccc2cc(S(=O)(=O)N3CCCCC3)ccc21)NCCC1=CCCCC1`, for which the activity change, negative = inhibition in assay [1] is 0.201%; in assay [2], 2.56%; in assay [3] it was 0.404%; in assay [4] it was -8.66%; in assay [5], -2.27%.

Turning to `CC(C)NC(=O)c1cc2n(n1)CC(C)(C(=O)NC1CCCCCC1)N(C)C2=O` (configuration not stated), the activity change, negative = inhibition was 7.14% in assay [1]; 3.86% in assay [2]; 11.3% in assay [3]; 15% in assay [4]; 4.54% in assay [5].

As for `CN1C(=O)c2cc(C(=O)NCc3cccc(Br)c3)nn2CC1(C)C(=O)NCc1ccc(F)cc1` (configuration not stated), the activity change, negative = inhibition in assay [1] is -3.82%; in assay [2], 0.042%; in assay [3], -7.26%; in assay [4] it was -3.75%; in assay [5], -5.26%.

As to `COc1cccc(Cn2nc3n(C)c(=O)c4ccc(C(=O)NCC(C)C)cc4n3c2=O)c1`, the activity change, negative = inhibition is 3.93% in assay [1]; 0.607% in assay [2]; 11% in assay [3]; -1.34% in assay [4]; 4.9% in assay [5].
